{
  "source": "PubChem BioAssay AID1347073",
  "about": "(National Center for Advancing Translational Sciences (NCATS), 2019)",
  "note": "In all, about 45,000 compounds went through this assay and about 200 (0.44%) were called active. About 7% were inconclusive and are not listed. Calls come from the whole dose curve; as a rule, active = well fitted activation curve with a large enough effect; inconclusive = small, poorly fitted or top-dose-only effect; inactive = no such curve, though single readings can be large or run the other way. The list shows a part of the results. Potency is the fitted concentration of half-maximal effect.",
  "data": [
    {"assay": "qHTS of TDP-43 Inhibitors: NCGC Sytravon Library Screen; note: nearly all actives have a fitted effect of over 55% in size; for growth rescue (activation): 0% is about no effect", "conditions": "yeast TDP-43 toxicity rescue, BacTiter-Glo growth, 24 h; series mostly up to 46.1 µM; growth rescue (activation): at the top concentration", "in_short": "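TDP-43-expressing yeast, pregrown in raffinose, seeded at OD600 0.02 in galactose medium with compound for 24 hr at 30 deg C. Growth read by BacTiter-Glo luminescence, so rescue of toxicity appears as activation.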", "values": [
      {"smiles": "COc1ccc(N(C)C(=O)CCS(=O)(=O)c2cccc3nsnc23)cc1", "growth rescue (activation)": "inactive: 3.54%"},
      {"smiles": "O=C(COC(=O)CCc1ccc(S(=O)(=O)N2CCOCC2)cc1)NCc1ccc(Cl)cc1", "growth rescue (activation)": "inactive: 7.38%"},
      {"smiles": "Cc1ccccc1NC(=O)C1CCCN(C(=O)NCc2ccccc2)C1", "note": "(stereo unspecified)", "growth rescue (activation)": "inactive: 1.05%"},
      {"smiles": "CC(C)CC(CC(C)C)=NNC(=O)c1ccc2c(c1)OCO2", "growth rescue (activation)": "inactive: 21.7%"},
      {"smiles": "CCOc1ccc(-c2cc(C(=O)Nc3ccc(C)c(NS(C)(=O)=O)c3)[nH]n2)c(C)c1", "growth rescue (activation)": "inactive: 5.88%"},
      {"smiles": "O=C(CCc1ccccc1)NCCSCc1c(F)cccc1Cl", "growth rescue (activation)": "inactive: 21%"},
      {"smiles": "COc1ccc(OC)c(C(c2c(C)[nH][nH]c2=O)c2c(C)[nH][nH]c2=O)c1", "growth rescue (activation)": "inactive: -34.3%"},
      {"smiles": "COc1cc(/C=N/N2CCCCC2)cc(OC)c1O", "growth rescue (activation)": "inactive: -1.47%"},
      {"smiles": "CN(CC(=O)NCc1ccccn1)S(=O)(=O)c1ccc(Cl)cc1", "growth rescue (activation)": "inactive: 1.56%"},
      {"smiles": "Cc1ccc(S(=O)(=O)NN=C2CCC(C(C)(C)C)CC2)cc1[N+](=O)[O-]", "note": "(stereo unspecified)", "growth rescue (activation)": "inactive: 27.1%"},
      {"smiles": "Cc1oc(C(C)(C)C)cc1C(=O)Nc1cccc(/C=C\\C(=O)O)c1", "growth rescue (activation)": "inactive: 3.91%"},
      {"smiles": "O=C(COC(=O)CC1Sc2ccccc2NC1=O)NCc1ccccc1", "note": "(stereo unspecified)", "growth rescue (activation)": "inactive: -3.75%"},
      {"smiles": "Cc1ccc(NC(=S)Nc2ccc(S(=O)(=O)N3CCOCC3)cc2)cc1S(=O)(=O)N1CCOCC1", "growth rescue (activation)": "inactive: -22.3%"},
      {"smiles": "c1cc2c(cc1-c1[nH]ncc1CN1CC3C[C@@H]4CC1C[C@H](C3)C4)OCO2", "growth rescue (activation)": "inactive: -3.12%"},
      {"smiles": "CC(=O)c1c(C)[nH]c(C(=O)Nc2cccc(S(=O)(=O)N(C)c3ccccc3)c2)c1C", "growth rescue (activation)": "inactive: -11.2%"},
      {"smiles": "Cc1ccc(NC(=O)CN2C(=O)NC3(CCCc4ccccc43)C2=O)c(Cl)c1", "note": "(stereo unspecified)", "growth rescue (activation)": "inactive: 5.41%"},
      {"smiles": "COc1ccccc1NC(=O)NNC(=O)CN1C(=O)COc2ccccc21", "growth rescue (activation)": "inactive: 3.78%"},
      {"smiles": "COc1ccc(NC(=O)c2cccc3c(-c4cccnc4)coc23)cc1", "Potency": "active: 10 µM"},
      {"smiles": "Cc1ccccc1S(=O)(=O)NC(=O)C1(C)CCN1C(=O)c1c(C)noc1C", "note": "(stereo unspecified)", "growth rescue (activation)": "inactive: 7.79%"},
      {"smiles": "CC(OC(=O)C(NC(=O)c1ccco1)C(C)C)C(=O)Nc1ncc(Cl)cc1Cl", "note": "(stereo unspecified)", "growth rescue (activation)": "inactive: 1.8%"},
      {"smiles": "CC(=O)c1ccc(S(=O)(=O)N(C)CC(=O)NCC2CCCCC2)cc1", "growth rescue (activation)": "inactive: 5.53%"},
      {"smiles": "Cc1ccc(C(=O)NNC(=O)CCC(=O)Nc2cccc(Cl)c2C)cc1", "growth rescue (activation)": "inactive: 16.3%"},
      {"smiles": "Cc1ccc(C(=O)N2CCN(c3ccc(NC(=O)c4cccnc4Cl)cc3)CC2)cc1", "growth rescue (activation)": "inactive: 13.9%"},
      {"smiles": "CCCC(=O)N1CCC1(C)C(=O)NS(=O)(=O)c1ccc(OC)cc1", "note": "(stereo unspecified)", "growth rescue (activation)": "inactive: -2.79%"},
      {"smiles": "O=C(O)/C=C/C(=O)N(Cc1ccc2c(c1)OCO2)C1CC(=O)N(CCc2ccccc2)C1=O", "note": "(stereo unspecified)", "growth rescue (activation)": "inactive: -13%"},
      {"smiles": "COc1ccc(C2Nc3ccccc3C(=O)N2c2ccccc2)cc1CN1CCOCC1", "note": "(stereo unspecified)", "growth rescue (activation)": "inactive: 1.97%"},
      {"smiles": "CC(C)(C)c1ccc(-c2nnc(SCC(=O)Nc3sc4c(c3C#N)CCCC4)o2)cc1", "growth rescue (activation)": "inactive: 29.6%"},
      {"smiles": "Oc1ccccc1Nc1ncnc2c1oc1ccccc12", "growth rescue (activation)": "inactive: 1.57%"},
      {"smiles": "O=C(c1ccc(S(=O)(=O)N2CCCC2)cc1)N1CCN(c2ccccc2F)CC1", "growth rescue (activation)": "inactive: -14.4%"},
      {"smiles": "Cc1ccc(S(=O)(=O)N2CCCC(C(=O)N3CCN(c4ccccc4)CC3)C2)cc1", "note": "(stereo unspecified)", "growth rescue (activation)": "inactive: 7.67%"},
      {"smiles": "CCOC(=O)C1(CCOc2ccccc2)CCN(CCCn2cccn2)CC1", "growth rescue (activation)": "inactive: -9.43%"},
      {"smiles": "CC1CCCCN1S(=O)(=O)c1ccc(N(C(=O)c2cnccn2)C(C(=O)NC2CCCC2)c2cccs2)cc1", "note": "(stereo unspecified)", "growth rescue (activation)": "inactive: 8.77%"},
      {"smiles": "Cc1cc(C(=O)COc2nncc3ccccc23)c(C)n1C", "growth rescue (activation)": "inactive: -13.1%"},
      {"smiles": "CC1(NS(=O)(=O)c2ccc(Cl)s2)CCS(=O)(=O)C1", "note": "(stereo unspecified)", "growth rescue (activation)": "inactive: -14.9%"},
      {"smiles": "COc1ccc(CC(=O)N/N=C(\\C)CC(=O)Nc2ccc(N(C)C)cc2)cc1OC", "growth rescue (activation)": "inactive: -11.9%"},
      {"smiles": "CN(Cc1ccccc1)C(=O)CSc1cc(=O)n(C)c2ccccc12", "growth rescue (activation)": "inactive: 12.8%"},
      {"smiles": "Cc1cccc(C(=O)NCCc2ccc(S(N)(=O)=O)cc2)c1[N+](=O)[O-]", "growth rescue (activation)": "inactive: 11.4%"},
      {"smiles": "COc1ccc(C(=O)NC(C)Cn2nc(C)cc2C)cc1OC1CCN(C(C)=O)CC1", "note": "(stereo unspecified)", "growth rescue (activation)": "inactive: 6.68%"},
      {"smiles": "CCOc1ccc(NC(=O)CCS(=O)(=O)c2ccc3c(c2)n(C)c(=O)c(=O)n3C)cc1", "growth rescue (activation)": "inactive: 11.1%"},
      {"smiles": "O=C(Nc1ccc(NS(=O)(=O)c2ccccc2)cc1)c1cccnc1", "growth rescue (activation)": "inactive: 5.78%"},
      {"smiles": "Cc1cc(NC(=O)c2ccc(Cl)cc2)cc(C)c1OCC(=O)N1CCOCC1", "growth rescue (activation)": "inactive: 8.56%"},
      {"smiles": "O=C(O)COc1ccc2c3c(c(=O)oc2c1)CCCC3", "growth rescue (activation)": "inactive: -7.24%"},
      {"smiles": "Cc1cc(C[n+]2cc(Br)ccc2N)c2ncccc2c1", "growth rescue (activation)": "inactive: -6.17%"},
      {"smiles": "Cc1ccc(SCc2cn3c(C)cc(C)nc3n2)cc1", "growth rescue (activation)": "inactive: 13.1%"},
      {"smiles": "CCCCN(CCCC)CCNC(=O)CSCc1ccc(C)cc1", "growth rescue (activation)": "inactive: -13.7%"},
      {"smiles": "O=C(CSc1cn[nH]n1)Nc1ccccc1F", "growth rescue (activation)": "inactive: -20.4%"},
      {"smiles": "CC(C)OP(=O)(OC(C)C)C(NC(=O)c1ccccc1)C(N)=O", "note": "(stereo unspecified)", "growth rescue (activation)": "inactive: -12.2%"},
      {"smiles": "Cc1ccc(NS(=O)(=O)c2ccc3[nH]c(=O)[nH]c3c2)c(C)c1", "growth rescue (activation)": "inactive: 11.2%"},
      {"smiles": "O=C1CSC(c2ccc(F)cc2)N1c1ccccc1F", "note": "(stereo unspecified)", "growth rescue (activation)": "inactive: -3.86%"},
      {"smiles": "Cc1ccc2c(c1)C1CN(C)CCC1N2C(=O)c1ccccc1NS(=O)(=O)c1ccc(F)cc1C", "note": "(stereo unspecified)", "growth rescue (activation)": "inactive: -20.7%"},
      {"smiles": "Cc1ccc[n+](-c2nc([O-])sc2/C=N/Nc2ccc([N+](=O)[O-])cc2)c1", "growth rescue (activation)": "inactive: 8.78%"},
      {"smiles": "CCC(C)(C)n1nnnc1CN(Cc1cc2cc(OC)c(OC)cc2[nH]c1=O)C1CCCC1", "growth rescue (activation)": "inactive: -4.04%"},
      {"smiles": "COc1ccc(CCN2CC(C(=O)NCc3c(C)n[nH]c3C)CCC2=O)cc1", "note": "(stereo unspecified)", "growth rescue (activation)": "inactive: -0.59%"},
      {"smiles": "O=C(c1c(F)cccc1Cl)N1CCN(c2ccccn2)CC1", "growth rescue (activation)": "inactive: -1.02%"},
      {"smiles": "CC(=O)NC(c1cccc(F)c1)c1nc(-c2ccoc2)cs1", "note": "(stereo unspecified)", "growth rescue (activation)": "inactive: -1.82%"},
      {"smiles": "COc1ccccc1Nc1nc(C)c(C(=O)Nc2ccccc2)s1", "growth rescue (activation)": "inactive: 18.9%"},
      {"smiles": "CCOC(=O)CCC(NC(=O)CCCCCCCC(=O)NC(CCC(=O)OCC)C(=O)OCC)C(=O)OCC", "note": "(stereo unspecified)", "growth rescue (activation)": "inactive: 13.7%"},
      {"smiles": "COc1ccc(CCNCC(=O)Nc2ccc(C(=O)N3CCCCC3)cc2)cc1", "growth rescue (activation)": "inactive: -5.33%"},
      {"smiles": "O=C(Nc1ccc2oc(-c3cccnc3)nc2c1)c1ccc2c(c1)OCCO2", "growth rescue (activation)": "inactive: 3.31%"},
      {"smiles": "Cc1nnsc1Sc1ccccn1", "growth rescue (activation)": "inactive: 13.3%"},
      {"smiles": "COc1ccc(NC(=O)c2cc(-c3cccc(OC)c3)on2)cc1", "growth rescue (activation)": "inactive: -20.8%"},
      {"smiles": "CCN(CC)C(=O)COc1ccc2c3c(c(=O)oc2c1)CCCC3", "growth rescue (activation)": "inactive: 9.73%"},
      {"smiles": "O=C(CSc1nnnn1-c1ccccc1)Nc1ccc(Cl)cn1", "growth rescue (activation)": "inactive: -8.75%"},
      {"smiles": "CCOC(=O)/C(C#N)=C/C1=C(N2CCOCC2)CC(C)(C)OC1", "growth rescue (activation)": "inactive: 15.5%"},
      {"smiles": "COc1ccc(C(=O)O/N=C(\\N)c2ccccc2)cc1", "growth rescue (activation)": "inactive: -62.4%"},
      {"smiles": "Cc1ccc(-c2cc(C(=O)Nc3cc(C(=O)O)ccc3C)c3ccccc3n2)cc1", "growth rescue (activation)": "inactive: -2.72%"}
    ]}
  ]
}
